Article PMC6925443
Results are given in words; binding and its absence hold for the method and conditions named. Binding seen in cells or lysates may run through a third protein. Some results given as binding are weak or reduced against the parent protein; the word gives no strength. One block for each molecule: values may come before it.

Sequences of proteins named here, by UniProt entry; tags and fusion partners are left off. Residues count along the entry.
UniProt P28799, residues 18-593: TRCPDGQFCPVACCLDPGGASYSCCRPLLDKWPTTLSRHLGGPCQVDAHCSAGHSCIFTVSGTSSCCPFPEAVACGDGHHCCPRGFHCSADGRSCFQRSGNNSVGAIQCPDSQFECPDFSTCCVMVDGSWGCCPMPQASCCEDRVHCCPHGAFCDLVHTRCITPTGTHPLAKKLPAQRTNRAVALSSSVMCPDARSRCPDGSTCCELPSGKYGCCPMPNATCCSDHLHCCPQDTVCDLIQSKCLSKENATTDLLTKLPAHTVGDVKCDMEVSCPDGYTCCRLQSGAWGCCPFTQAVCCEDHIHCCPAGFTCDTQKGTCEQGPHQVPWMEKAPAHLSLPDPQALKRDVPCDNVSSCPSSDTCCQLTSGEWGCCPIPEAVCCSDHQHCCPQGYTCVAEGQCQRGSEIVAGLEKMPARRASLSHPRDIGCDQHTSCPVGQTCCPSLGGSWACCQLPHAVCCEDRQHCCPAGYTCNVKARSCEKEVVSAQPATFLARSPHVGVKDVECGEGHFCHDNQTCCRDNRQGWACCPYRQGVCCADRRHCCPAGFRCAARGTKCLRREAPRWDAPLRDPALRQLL
UniProt Q99523, residues 78-831: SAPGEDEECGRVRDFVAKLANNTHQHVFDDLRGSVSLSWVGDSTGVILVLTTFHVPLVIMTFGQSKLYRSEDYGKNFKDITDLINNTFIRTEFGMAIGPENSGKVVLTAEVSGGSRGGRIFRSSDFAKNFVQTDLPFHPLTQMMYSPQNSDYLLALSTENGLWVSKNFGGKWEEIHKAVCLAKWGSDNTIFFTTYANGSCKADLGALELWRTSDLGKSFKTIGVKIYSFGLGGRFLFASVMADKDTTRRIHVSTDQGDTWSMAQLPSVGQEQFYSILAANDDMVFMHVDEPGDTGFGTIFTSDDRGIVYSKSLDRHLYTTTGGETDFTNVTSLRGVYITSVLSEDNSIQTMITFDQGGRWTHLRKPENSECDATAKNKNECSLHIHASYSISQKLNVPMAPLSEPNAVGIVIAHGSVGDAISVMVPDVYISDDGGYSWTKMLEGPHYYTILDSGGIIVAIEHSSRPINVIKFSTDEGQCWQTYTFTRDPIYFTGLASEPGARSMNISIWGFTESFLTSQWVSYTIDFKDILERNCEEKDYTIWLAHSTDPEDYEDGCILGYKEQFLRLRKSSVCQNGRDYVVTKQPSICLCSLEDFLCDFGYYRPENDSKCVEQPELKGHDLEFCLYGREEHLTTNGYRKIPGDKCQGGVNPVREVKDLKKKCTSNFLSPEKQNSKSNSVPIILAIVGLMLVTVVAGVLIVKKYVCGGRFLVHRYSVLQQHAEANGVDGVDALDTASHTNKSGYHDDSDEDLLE
UniProt Q9NUM4: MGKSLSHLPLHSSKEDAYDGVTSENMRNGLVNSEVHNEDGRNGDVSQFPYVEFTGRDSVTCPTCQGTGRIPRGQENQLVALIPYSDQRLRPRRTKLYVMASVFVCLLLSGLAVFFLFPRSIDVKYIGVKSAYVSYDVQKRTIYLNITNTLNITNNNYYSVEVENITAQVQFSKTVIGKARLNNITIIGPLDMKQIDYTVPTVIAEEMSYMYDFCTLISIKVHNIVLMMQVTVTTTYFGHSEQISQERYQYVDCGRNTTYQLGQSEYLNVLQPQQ
UniProt P56817, residues 46-501: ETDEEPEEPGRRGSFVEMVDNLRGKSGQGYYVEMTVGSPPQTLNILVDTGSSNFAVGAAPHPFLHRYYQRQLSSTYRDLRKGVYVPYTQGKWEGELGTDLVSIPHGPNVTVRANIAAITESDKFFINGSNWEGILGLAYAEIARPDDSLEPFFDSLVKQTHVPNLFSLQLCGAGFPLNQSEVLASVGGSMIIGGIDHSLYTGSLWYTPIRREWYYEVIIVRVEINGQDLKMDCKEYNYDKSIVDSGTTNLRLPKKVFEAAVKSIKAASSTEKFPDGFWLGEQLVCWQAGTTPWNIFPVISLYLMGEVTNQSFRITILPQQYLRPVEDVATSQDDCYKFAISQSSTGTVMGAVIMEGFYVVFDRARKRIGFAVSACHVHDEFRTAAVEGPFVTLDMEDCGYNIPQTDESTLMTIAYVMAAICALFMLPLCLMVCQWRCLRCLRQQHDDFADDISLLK

What was measured:
[1] = target: Progranulin (PGRN) (human (endogenous in brain tissue)) (UniProt P28799); assay: co-IP; RIPA extracts of human middle temporal gyrus (200 ug, centrifuged 14,000 g/30 min); 2 ug goat anti-PGRN or rabbit anti-PSAP on protein G or protein A magnetic beads; 18 h at 4 C; washed three times with RIPA; eluted without reducing agent at 80 C; western blot
[2] = target: T1, Prosaposin (PSAP) (human (endogenous in brain tissue)) (UniProt P07602); assay: as above
T1 sequence: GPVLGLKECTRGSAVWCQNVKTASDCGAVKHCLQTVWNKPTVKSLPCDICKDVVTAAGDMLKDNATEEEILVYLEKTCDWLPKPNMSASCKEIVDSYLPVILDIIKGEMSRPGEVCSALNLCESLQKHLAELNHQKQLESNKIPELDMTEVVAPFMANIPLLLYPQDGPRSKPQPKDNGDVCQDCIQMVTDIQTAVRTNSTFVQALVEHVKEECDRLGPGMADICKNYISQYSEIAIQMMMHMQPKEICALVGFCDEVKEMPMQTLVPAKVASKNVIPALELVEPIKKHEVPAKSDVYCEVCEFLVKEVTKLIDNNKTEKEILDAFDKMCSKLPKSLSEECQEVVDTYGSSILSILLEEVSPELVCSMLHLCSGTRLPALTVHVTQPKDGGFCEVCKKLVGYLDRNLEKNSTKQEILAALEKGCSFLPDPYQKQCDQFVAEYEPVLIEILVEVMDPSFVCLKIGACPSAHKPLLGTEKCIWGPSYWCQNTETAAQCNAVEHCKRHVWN

[3] = target: T2, Prosaposin (PSAP) of HEK cells (human (endogenous in HEK)) (UniProt P07602); assay: co-IP; RIPA extracts of PGRN-overexpressing HEK cells (100 ug); 2 ug goat anti-PGRN or rabbit anti-PSAP on protein G or protein A magnetic beads; 18 h at 4 C; washed three times with RIPA; eluted without reducing agent at 80 C; western blot
T2 sequence: T1 sequence

[4] = target: PGRN protein fused with a green fluorescent protein sequence (UniProt P28799); assay: as above

Molecule: PGRN protein fused with a green fluorescent protein sequence (from UniProt P28799 18-593)
binding [3]: binds

Molecule: Sortilin (from UniProt Q99523 78-831)
binding [2]: binds weakly

B1: Prosaposin (PSAP) (protein, UniProt P07602 17-524)
chain: T1 sequence
binding [1]: binds

B2: Prosaposin (PSAP) of HEK cells (protein, UniProt P07602 17-524)
chain: T1 sequence
binding [4]: binds

The next lines start with the values.

binding [1]: no binding | binding [2]: no binding
Molecule: TMEM106B (from UniProt Q9NUM4 1-274)

binding [1]: no binding | binding [2]: binds
Molecule: beta-secretase-1 (BACE-1) (from UniProt P56817 46-501) (enzyme)

binding [2]: binds
Molecule: Progranulin (PGRN) (from UniProt P28799 18-593)
